{
  "source": "the supplement of paper PMC8728848",
  "binders": {"B1": {"name": "UEA-I (Ulex europaeus), P22972 (protein)", "chain": "SDDLSFKFKNFSQNGKDLSFQGDASVIETGVLQLNKVGNNLPDETGGIARYIAPIHIWNCNTGEVASFITSFSFFMETSANPKAATDGLTFFLAPPDSPLRRAGGYFGLFEDTKDNDSSYQTVAVEFDTIGSPVNFDDPGFPHIGIDVNRVKSINAERWNKRYGLNNVANVEIIYEASSKTLTASLTYPSDQTSISVTSIVDLKEILPEWVSVGFSGGTYIGRQATHEVLNWYFTSNLINTNS"}},
  "test_in_all_cases": "glycan array binding signal (z-score within array); higher = stronger binding",
  "settings_in_all_cases": "glycan notation: IUPAC condensed, linker removed",
  "key": {"[1]": {"molecular_target": "Fuc(a1-2)Gal(b1-4)GlcNAc(b1-3)Gal(b1-4)GlcNAc", "how_it_was_run": "(§1)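 Columns mapping to the same glycan were averaged after glycan names were converted to IUPAC-condensed notation. The data come from 3228 arrays in the Consortium for Functional Glycomics database, limited to those with an available protein sequence. Binding is reported as a within-array Z-score averaged across arrays of one protein sequence and across linkers.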"}, "[2]": {"molecular_target": "Fuc(a1-2)Gal(b1-4)GlcNAc(b1-3)Gal(b1-4)GlcNAc(b1-2)Man(a1-3)[Fuc(a1-2)Gal(b1-4)GlcNAc(b1-3)Gal(b1-4)GlcNAc(b1-2)Man(a1-6)]Man(b1-4)GlcNAc(b1-4)GlcNAc", "how_it_was_run": "as §1"}, "[3]": {"molecular_target": "Fuc(a1-2)Gal(b1-4)GlcNAc(b1-3)Gal(b1-4)GlcNAc(b1-3)Gal(b1-4)GlcNAc", "how_it_was_run": "as §1"}, "[4]": {"molecular_target": "Fuc(a1-2)Gal(b1-4)GlcNAc(b1-3)GalNAc", "how_it_was_run": "as §1"}, "[5]": {"molecular_target": "Fuc(a1-2)Gal(b1-4)GlcNAc(b1-3)[Fuc(a1-2)Gal(b1-4)GlcNAc(b1-6)]GalNAc", "how_it_was_run": "as §1"}, "[6]": {"molecular_target": "Fuc(a1-2)Gal(b1-4)GlcNAc(b1-3)[Fuc(a1-3)[Gal(b1-4)]GlcNAc(b1-6)]Gal(b1-4)Glc", "how_it_was_run": "as §1"}, "[7]": {"molecular_target": "Fuc(a1-2)Gal(b1-4)GlcNAc(b1-6)GalNAc", "how_it_was_run": "as §1"}, "[8]": {"molecular_target": "Fuc(a1-2)Gal(b1-4)GlcNAc6S", "how_it_was_run": "as §1"}, "[9]": {"molecular_target": "Fuc(a1-2)Gal(b1-4)[Fuc(a1-3)]GalNAc(b1-3)Gal(b1-4)[Fuc(a1-3)]GlcNAc", "how_it_was_run": "as §1"}, "[10]": {"molecular_target": "Fuc(a1-2)Gal(b1-4)[Fuc(a1-3)]GalNAc(b1-3)Gal(b1-4)[Fuc(a1-3)]GlcNAc(b1-3)Gal(b1-4)[Fuc(a1-3)]GalNAc", "how_it_was_run": "as §1"}, "[11]": {"molecular_target": "Fuc(a1-2)Gal(b1-4)[Fuc(a1-3)]GlcNAc", "how_it_was_run": "as §1"}, "[12]": {"molecular_target": "Fuc(a1-2)Gal(b1-4)[Fuc(a1-3)]GlcNAc(b1-2)Man(a1-3)[Fuc(a1-2)Gal(b1-4)[Fuc(a1-3)]GlcNAc(b1-2)Man(a1-6)]Man(b1-4)GlcNAc(b1-4)[Fuc(a1-6)]GlcNAc", "how_it_was_run": "as §1"}, "[13]": {"molecular_target": "Fuc(a1-2)Gal(b1-4)[Fuc(a1-3)]GlcNAc(b1-2)[Fuc(a1-2)Gal(b1-4)[Fuc(a1-3)]GlcNAc(b1-4)]Man(a1-3)[Fuc(a1-2)Gal(b1-4)[Fuc(a1-3)]GlcNAc(b1-2)Man(a1-6)]Man(b1-4)GlcNAc(b1-4)GlcNAc", "how_it_was_run": "as §1"}, "[14]": {"molecular_target": "Fuc(a1-2)Gal(b1-4)[Fuc(a1-3)]GlcNAc(b1-3)Gal(b1-4)[Fuc(a1-3)]GlcNAc", "how_it_was_run": "as §1"}, "[15]": {"molecular_target": "Fuc(a1-2)Gal(b1-4)[Fuc(a1-3)]GlcNAc(b1-3)Gal(b1-4)[Fuc(a1-3)]GlcNAc(b1-3)Gal(b1-4)[Fuc(a1-3)]GlcNAc", "how_it_was_run": "as §1"}, "[16]": {"molecular_target": "Fuc(a1-2)Gal(b1-4)[Fuc(a1-3)]GlcNAc(b1-3)GalNAc", "how_it_was_run": "as §1"}, "[17]": {"molecular_target": "Fuc(a1-2)Gal(b1-4)[Fuc(a1-3)]GlcNAc(b1-3)[Neu5Ac(a2-6)Gal(b1-4)GlcNAc(b1-6)]Gal(b1-4)Glc", "how_it_was_run": "as §1"}, "[18]": {"molecular_target": "Fuc(a1-2)Gal3S(b1-4)GlcNAc", "how_it_was_run": "as §1"}, "[19]": {"molecular_target": "Fuc(a1-2)Gal6S(b1-3)GlcNAc", "how_it_was_run": "as §1"}, "[20]": {"molecular_target": "Fuc(a1-2)Gal6S(b1-3)GlcNAc6S", "how_it_was_run": "as §1"}, "[21]": {"molecular_target": "Fuc(a1-2)Gal6S(b1-4)Glc", "how_it_was_run": "as §1"}, "[22]": {"molecular_target": "Fuc(a1-2)Gal6S(b1-4)Glc6S", "how_it_was_run": "as §1"}, "[23]": {"molecular_target": "Fuc(a1-2)Gal6S(b1-4)GlcNAc", "how_it_was_run": "as §1"}, "[24]": {"molecular_target": "Fuc(a1-2)GlcNAc", "how_it_was_run": "as §1"}, "[25]": {"molecular_target": "Fuc(a1-2)[Gal(a1-3)]Gal", "how_it_was_run": "as §1"}, "[26]": {"molecular_target": "Fuc(a1-2)[Gal(a1-3)]Gal(b1-3)GalNAc", "how_it_was_run": "as §1"}, "[27]": {"molecular_target": "Fuc(a1-2)[Gal(a1-3)]Gal(b1-3)GalNAc(b1-3)Gal(a1-4)Gal(b1-4)Glc", "how_it_was_run": "as §1"}, "[28]": {"molecular_target": "Fuc(a1-2)[Gal(a1-3)]Gal(b1-3)GlcNAc", "how_it_was_run": "as §1"}, "[29]": {"molecular_target": "Fuc(a1-2)[Gal(a1-3)]Gal(b1-3)GlcNAc(b1-2)Man(a1-3)[Fuc(a1-2)[Gal(a1-3)]Gal(b1-3)GlcNAc(b1-2)Man(a1-6)]Man(b1-4)GlcNAc(b1-4)GlcNAc", "how_it_was_run": "as §1"}, "[30]": {"molecular_target": "Fuc(a1-2)[Gal(a1-3)]Gal(b1-3)GlcNAc(b1-2)Man(a1-3)[Fuc(a1-2)[Gal(a1-3)]Gal(b1-3)GlcNAc(b1-2)Man(a1-6)]Man(b1-4)GlcNAc(b1-4)[Fuc(a1-6)]GlcNAc", "how_it_was_run": "as §1"}},
  "note": "This is one part of the list.",
  "data": [
    {"binder": "B1", "values": [
      {"measurement": "glycan array binding signal (z-score)", "setting": "[1]", "result": 1.57},
      {"measurement": "glycan array binding signal (z-score)", "setting": "[2]", "result": 2.76},
      {"measurement": "glycan array binding signal (z-score)", "setting": "[3]", "result": 1.8},
      {"measurement": "glycan array binding signal (z-score)", "setting": "[4]", "result": -0.149},
      {"measurement": "glycan array binding signal (z-score)", "setting": "[5]", "result": 5.44},
      {"measurement": "glycan array binding signal (z-score)", "setting": "[6]", "result": -0.138},
      {"measurement": "glycan array binding signal (z-score)", "setting": "[7]", "result": 4.28},
      {"measurement": "glycan array binding signal (z-score)", "setting": "[8]", "result": 5.67},
      {"measurement": "glycan array binding signal (z-score)", "setting": "[9]", "result": -0.611},
      {"measurement": "glycan array binding signal (z-score)", "setting": "[10]", "result": -0.666},
      {"measurement": "glycan array binding signal (z-score)", "setting": "[11]", "result": 3.48},
      {"measurement": "glycan array binding signal (z-score)", "setting": "[12]", "result": -0.035},
      {"measurement": "glycan array binding signal (z-score)", "setting": "[13]", "result": -0.118},
      {"measurement": "glycan array binding signal (z-score)", "setting": "[14]", "result": -0.025},
      {"measurement": "glycan array binding signal (z-score)", "setting": "[15]", "result": -0.047},
      {"measurement": "glycan array binding signal (z-score)", "setting": "[16]", "result": 0.072},
      {"measurement": "glycan array binding signal (z-score)", "setting": "[17]", "result": -0.226},
      {"measurement": "glycan array binding signal (z-score)", "setting": "[18]", "result": 3.27},
      {"measurement": "glycan array binding signal (z-score)", "setting": "[19]", "result": -0.194},
      {"measurement": "glycan array binding signal (z-score)", "setting": "[20]", "result": -0.191},
      {"measurement": "glycan array binding signal (z-score)", "setting": "[21]", "result": 4.67},
      {"measurement": "glycan array binding signal (z-score)", "setting": "[22]", "result": 5.33},
      {"measurement": "glycan array binding signal (z-score)", "setting": "[23]", "result": 2.5},
      {"measurement": "glycan array binding signal (z-score)", "setting": "[24]", "result": 1.81},
      {"measurement": "glycan array binding signal (z-score)", "setting": "[25]", "result": -0.199},
      {"measurement": "glycan array binding signal (z-score)", "setting": "[26]", "result": -0.174},
      {"measurement": "glycan array binding signal (z-score)", "setting": "[27]", "result": -0.2},
      {"measurement": "glycan array binding signal (z-score)", "setting": "[28]", "result": -0.149},
      {"measurement": "glycan array binding signal (z-score)", "setting": "[29]", "result": -0.173},
      {"measurement": "glycan array binding signal (z-score)", "setting": "[30]", "result": -0.167}
    ]}
  ]
}
